Counter-ions that a name gives are not always drawn. The list shows a part of the results. No stated cut-off is given here; in the data, active = 0.5 or less and inactive = the rest. Many values rest on one well or one pass, so single values are uncertain.
Legend:
Settings in all cases: 50 µM; 24 h
[1] = test system: HeLa VPS33A reporter cells; assay: relative cell viability (CellMask signal) vs DMSO (fraction of DMSO); higher = less cytotoxic;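 further: primary screen of an FDA-approved drug library in HeLa reporter cells in 96-well format, CellMask signal normalized to DMSO-treated wells set as 1, under 0.5 deemed highly cytotoxic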
[2] = test system: HeLa VPS33A R498W KI + HA-SDC1-FLAG; assay: relative GAG core protein HA-SDC1 amount per cell number vs DMSO (fraction of DMSO); higher = more SDC1 (GAG core protein);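 further: HA-SDC1 level read out by In-Cell Western staining with an anti-HA antibody against the N-terminal tag, screening FDA-approved library drugs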
[3] = test system: HeLa VPS33A KO + NLuc-VPS33A R498W; assay: relative mutant VPS33A R498W amount (NanoLuc luminescence) vs DMSO (fraction of DMSO); HeLa model of a glycosaminoglycan (GAG) storage disease; KI is knock-in and KO knock-out; SDC1 is syndecan 1; higher = higher mutant VPS33A level;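 further: screen of an FDA-approved drug library, NanoLuc luminescence read after lysing the treated cells, taken as a measure of mutant VPS33A protein stability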

Compound: CN1c2ccccc2C(NCCCCCCC(=O)O)c2ccc(Cl)cc2S1(=O)=O (centres undefined) [Tianeptine sodium]
- relative cell viability [1]: 0.976
- relative GAG core protein HA-SDC1 amount per cell number [2]: inactive: 0.922
- relative mutant VPS33A R498W amount [3]: 1.13

Compound: C[C@]12CC[C@H](O)CC1=CC[C@@H]1[C@@H]2CC[C@]2(C)C(=O)CC[C@@H]12 [Dehydroepiandrosterone (DHEA)]
- relative cell viability [1]: 1.23
- relative GAG core protein HA-SDC1 amount per cell number [2]: inactive: 1.09
- relative mutant VPS33A R498W amount [3]: 1.29

Compound: CC[C@@]1([C@H]2O[C@H]([C@H]3O[C@@](O)(CO)[C@H](C)C[C@@H]3C)C[C@H]2C)CC[C@H]([C@@]2(C)CC[C@]3(C[C@H](O)[C@@H](C)[C@@H]([C@H](C)[C@H](OC)[C@@H](C)C(=O)O)O3)O2)O1 [Sodium Monensin]
- relative cell viability [1]: 1
- relative GAG core protein HA-SDC1 amount per cell number [2]: inactive: 0.795
- relative mutant VPS33A R498W amount [3]: 0.742

Compound: CN(C)[C@@H]1C(=O)C(C(N)=O)=C(O)[C@@]2(O)C(=O)C3=C(O)c4c(O)cccc4[C@@](C)(O)[C@H]3C[C@@H]12 [Tetracycline Hydrochloride]
- relative cell viability [1]: 1.13
- relative GAG core protein HA-SDC1 amount per cell number [2]: inactive: 0.693
- relative mutant VPS33A R498W amount [3]: 0.371

Compound: CN(C)[C@@H]1C(=O)C(C(N)=O)=C(O)[C@@]2(O)C(=O)C3=C(O)c4c(O)cccc4[C@@](C)(O)[C@H]3[C@H](O)[C@@H]12 [Oxytetracycline Dihydrate]
- relative cell viability [1]: 0.916
- relative GAG core protein HA-SDC1 amount per cell number [2]: inactive: 0.846
- relative mutant VPS33A R498W amount [3]: 1.06

Compound: CCC1(C)CC(=O)NC(=O)C1 [Bemegride]
- relative cell viability [1]: 1.02
- relative GAG core protein HA-SDC1 amount per cell number [2]: inactive: 1.32
- relative mutant VPS33A R498W amount [3]: 1.25

Compound: CCOC(=O)Nc1ccc(NCc2ccc(F)cc2)cc1N [Retigabine dihydrochloride]
- relative cell viability [1]: 0.934
- relative GAG core protein HA-SDC1 amount per cell number [2]: inactive: 1.13
- relative mutant VPS33A R498W amount [3]: 0.964

Compound: Nc1nc(N)nc(NC2CC2)n1 [Cyromazine]
- relative cell viability [1]: 0.98
- relative GAG core protein HA-SDC1 amount per cell number [2]: inactive: 0.904
- relative mutant VPS33A R498W amount [3]: 1.62
